Out of some 280,000 compounds screened, about 540 (0.19%) were called active. Inconclusive means that the source gave no clear call. Such entries were picked first, then a sample of the others. Calls follow the shape of the dose curve; as a rule, active = well fitted activation curve with a large enough effect; inconclusive = small, poorly fitted or top-dose-only effect; inactive = flat fitted curve, though single readings scatter. Potencies beside an inconclusive call are fits to weak or partial responses and may not hold up.
Test: Quantitative High-Throughput Screen for Regulators of Epigenetic Control; also: nearly all actives have a fitted effect of over 60% in size
Settings: murine LDR cells, GFP reporter derepression, 30 h; series mostly up to 53.9 µM
Outline: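 Readout is the number of GFP-expressing murine LDR cells, counted by cytometry following washing. Cells were treated with compound for 30 h at 37 C; the stably integrated CMV-GFP locus is normally silent.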
Potency is read from the fitted curve at half-maximal effect; tags tell the direction and shape of the fitted curve.

Row | Structure (SMILES) | Potency
1 | CCc1ccc(NC(=O)Cn2c(=O)n(-c3ccccc3)c(=O)c3ccc(C(=O)NCc4ccc5c(c4)OCO5)cc32)cc1 | inconclusive: 14.1 µM [activator, single point]
2 | Cc1ccc(CNc2ccc(O)cc2)cc1 | inconclusive: 31.6 µM [activator, single point]
3 | COc1ccc(/C=N/Nc2ccc([N+](=O)[O-])cc2S(=O)(=O)N2CCN(C)CC2)cc1 | inconclusive: 25.1 µM [activator, single point]
4 | COc1ccc(CCN2C(=O)N(c3ccc(F)cc3)C(=O)C2CC(=O)Nc2ccc(OC)cc2)cc1 (stereo not drawn) | inactive
5 | COc1cc(-c2nnc(CSc3nnc(Nc4ccc(Oc5ccccc5)cc4)s3)o2)cc(OC)c1OC | inconclusive: 25.1 µM [activator, single point]
6 | Oc1ccccc1C1CC(c2cccs2)=NC(c2ccc(Cl)cc2)N1 (stereo not drawn) | inconclusive: 35.5 µM [activator, single point]
7 | Cc1ccc(/C=C2\SC(=S)N(CCCC(=O)NNC(=O)c3ccccc3O)C2=O)cc1 | inconclusive: 25.1 µM [activator, single point]
8 | Cc1cc(C)n2cc(CSc3nnnn3-c3ccc(Cl)cc3)nc2n1 | inactive
9 | CCOC(=O)COc1ccc(C)cc1C(=O)c1ccn2nc(-c3ccc(F)cc3)cc2n1 | inconclusive: 5.62 µM [activator, single point]
10 | COc1cccc(C(=O)Nc2cccc(C(=O)OCc3cc(=O)n4c(C)csc4n3)c2)c1 | inconclusive: 17.8 µM [activator, single point]
11 | NC(=O)CSC1=Nc2ccccc2C2=NC(c3ccccc3)C(=O)N12 (stereo not drawn) | inactive
12 | Cc1cc(C(c2nnnn2Cc2ccccc2)N2CCOCC2)c(C)n1-c1ccc2c(c1)OCO2 (stereo not drawn) | inconclusive: 31.6 µM [activator, single point]
13 | COc1ccc(N2CC(O)=C(c3nc(-c4ccc(F)cc4)cs3)C2=N)cc1Cl | inconclusive: 31.6 µM [activator, single point]
14 | COc1ccc(N2CC(NC(=O)COc3ccc4ccccc4c3)CC2=O)cc1OC (stereo not drawn) | inactive
15 | O=C1C(=C(O)c2ccccc2)C(=O)c2ccccc21 | inconclusive: 25.1 µM [activator, single point]
16 | O=C1C(c2ccnc3ccccc23)=C(O)c2ccccc21 | inactive
17 | O=C(NC(=S)N1CCN(c2ccc([N+](=O)[O-])cc2)CC1)c1ccccc1 | inconclusive: 11.2 µM [activator, single point]
18 | CCOc1ccc(-n2nc3ccc(NC(=O)c4ccc(-c5cccc(Cl)c5)o4)cc3n2)cc1 | inconclusive: 5.62 µM [activator, single point]
19 | CC1=C(C(=O)OC2CCCCCC2)C(c2cccc(Cl)c2)CC(=O)N1 (stereo not drawn) | inactive
20 | CC(C(=O)Nc1cccc([N+](=O)[O-])c1)[n+]1ccccc1 (stereo not drawn) | inconclusive: 15.8 µM [activator, single point]
21 | O=C(Nc1nncs1)c1cc2c(s1)CCC2 | inactive
22 | O=C1/C(=C/c2ccc(N3CCOCC3)o2)SC(=Nc2ccccc2)N1CCc1c[nH]c2ccccc12 | inconclusive: 20 µM [activator, single point]
23 | CCCCCCc1cc2cc(S(=O)(=O)c3ccc(C)cc3)c(=O)oc2cc1O | inactive

Row | Structure (SMILES) | Potency
24 | CSc1nnc(Cc2sc(-c3ccccc3)nc2-c2ccccc2)o1 | inconclusive: 3.16 µM [activator, single point]
25 | O=C1c2cc3ccccc3c(-c3ccccc3)c2C(=O)N1c1ccccn1 | inactive
26 | Cc1nnc(N2CCOCC2)c2nn(-c3cccc(Cl)c3)c(C)c12 | inconclusive: 25.1 µM [activator, single point]
27 | Cc1ccc2cccc(N=Cc3c(C)[nH]n(-c4ccccc4)c3=O)c2n1 | inconclusive: 35.5 µM [activator, single point]
28 | CC(=NCc1ccco1)c1c(C)[nH]n(-c2nc3ccccc3s2)c1=O | inconclusive: 6.31 µM [activator, single point]
29 | COc1ccc(-c2cc(C(=O)OCC(=O)c3c(N)n(C)c(=O)n(C)c3=O)c3ccccc3n2)cc1 | inconclusive: 35.5 µM [activator, single point]
30 | CCn1c(O)c(C=Nc2ccccc2)sc1=S | inconclusive: 35.5 µM [activator, single point]
31 | CCOc1ccc(-c2oc3cc(Cl)ccc3c(=O)c2O)cc1OC | inconclusive: 35.5 µM [activator, single point]
32 | Cc1nnc(NC(=O)c2nc(SCc3ccccc3F)ncc2Cl)s1 | inconclusive: 2.51 µM [activator, partial curve, poor fit]
33 | Cc1ccc(NC(=S)N(Cc2ccco2)C(C)c2cccs2)c(Cl)c1 (stereo not drawn) | inactive
34 | Cc1cc(C)c(C)c(S(=O)(=O)Nc2ccccc2C(=O)O)c1C | inconclusive: 6.31 µM [activator, single point]
35 | C#CCN(C)CC/C=C1\c2ccccc2CSc2ccccc21 | inactive
36 | CCOC(=O)C1CCN(C(c2cccc(OC)c2)c2sc3nc(C)nn3c2O)CC1 (stereo not drawn) | inactive
37 | CC(C)CN(CC(C)C)S(=O)(=O)c1ccc(C(=O)Nc2sc3c(c2C(N)=O)CC(C)(C)NC3(C)C)cc1 | inconclusive: 28.2 µM [activator, single point]
38 | S=C1SCN(Cc2cccnc2)CN1Cc1cccnc1 | inconclusive: 3.16 µM [activator, single point]
39 | Clc1ccc(OCCn2cnc3ccccc32)cc1 | inactive
40 | CC(=O)N1CCc2c(sc3c2c(=O)n(-c2ccc(C)cc2)c(=O)n3Cc2c(F)cccc2Cl)C1 | inconclusive: 35.5 µM [activator, single point]
41 | Cc1c(Cl)cccc1NC(=O)CC1SCCNC1=O (stereo not drawn) | inactive
42 | O=C(COc1ccc2ccccc2c1)Nc1nccs1 | inconclusive: 35.5 µM [activator, single point]
43 | O=c1c(Cl)c(Cl)cnn1-c1ccccc1 | inconclusive: 3.98 µM [activator, single point]
44 | COc1ccccc1Cn1c(C(C)C)nc2ccccc21 | inactive
45 | COc1cccc(C(=O)c2cn(CC(=O)NCc3ccccc3Cl)c3nc(C)ccc3c2=O)c1 | inconclusive: 35.5 µM [activator, single point]
46 | Cn1nnc2c[n+](CC(=O)c3ccc4ccccc4c3)cc(Br)c21 | inconclusive: 35.5 µM [activator, single point]

Row | Structure (SMILES) | Potency
47 | COc1ccc2nc(N3CCC(C)CC3)c(C#N)cc2c1 | inconclusive: 17.8 µM [activator, single point]
48 | COc1ccc(Br)cc1CNc1ccc(O)cc1 | inconclusive: 17.8 µM [activator, single point]
49 | CCOc1ccc(-c2csc(/C(C#N)=C/c3ccc(Br)cc3)n2)cc1 | inconclusive: 31.6 µM [activator, single point]
50 | Cn1c(=O)c(NCCc2ccccc2)c2c3c(cccc31)C(=O)c1ccccc1-2 | inconclusive: 10 µM [activator, single point]
51 | O=c1c(Cl)c(Cl)cnn1Cc1nnc(-c2ccc(Cl)cc2)o1 | inconclusive: 5.01 µM [activator, single point]
52 | COc1ccc(C2(C(=O)Nc3ccc(OC)cc3OC)CCCC2)cc1 | inconclusive: 17.8 µM [activator, single point]
53 | COc1cccc(CNCCSc2nnnn2C)c1OCc1ccccc1F | inactive
54 | CCOC(=O)CCCc1ccc(/C(C)=N/NC(N)=S)cc1 | inconclusive: 31.6 µM [activator, single point]
55 | O=C(Cn1cc([N+](=O)[O-])cn1)N1N=C(C(F)F)CC1(O)C(F)F (stereo not drawn) | inactive
56 | CCOc1ccc(N2C(=O)C(=O)/C(=C(/O)c3ccccc3)C2c2ccccc2[N+](=O)[O-])cc1 (stereo not drawn) | inactive
57 | COc1ccc(-c2nsc(NC(=O)C(C)Oc3ccc(Cl)c(C)c3)n2)cc1 (stereo not drawn) | inconclusive: 31.6 µM [activator, single point]
58 | Cc1ccsc1/C=C/c1ccc2cccc(O)c2n1 | inconclusive: 35.5 µM [activator, single point]
59 | COC(=O)c1cc2occc2n1Cc1nc(-c2cccc(Cl)c2)oc1C | inconclusive: 35.5 µM [activator, single point]
60 | CNC(=O)C(Sc1nc(C)nc2c1oc1ccccc12)C(C)=O (stereo not drawn) | inconclusive: 25.1 µM [activator, single point]
61 | CCS(=O)(=O)Nc1cccc(C2=NN(S(=O)(=O)c3ccc(C)cc3)C(c3cccs3)C2)c1 (stereo not drawn) | inconclusive: 25.1 µM [activator, single point]
62 | Cc1ccc(S(=O)(=O)NCc2ccc(C(=O)NC3CC3)cc2)cc1 | inactive
63 | CCCCC(=O)NC(=S)Nc1ccccc1N1CCCCC1 | inactive
64 | Cc1ccccc1OCCn1cnc2cc([N+](=O)[O-])ccc2c1=O | inconclusive: 3.55 µM [activator, full curve]
65 | O=C(Cn1c(=O)n(Cc2ccc3c(c2)OCO3)c(=O)c2oc3ccccc3c21)Nc1ccccc1F | inconclusive: 35.5 µM [activator, single point]
66 | COc1ccc(-c2nnc(SCC(=O)NC3CCCCC3)nc2-c2ccc(OC)cc2)cc1 | inconclusive: 35.5 µM [activator, single point]
67 | COc1ccc(CCNC(=O)c2cc3sccc3n2Cc2ccc(Cl)cc2)cc1OC | inconclusive: 0.0316 µM [activator, full curve, poor fit]
68 | Cn1cc(C2=C(c3cn(CCCSC(=N)N)c4ccccc34)C(=O)NC2=O)c2ccccc21 | inconclusive: 3.55 µM [activator, single point]
